Several values for one entry are separate records, joined by “and”; a condition that tells them apart may be missing. Equal entries are not always repeated. The campaign covered roughly 410,000 compounds. About 490 (0.12%) were called active. The inconclusive results got no clear call from the source; some entries with a clear call stand among them for comparison. Calls follow the shape of the dose curve; as a rule, active = well fitted inhibition curve with a large enough effect; inconclusive = small, poorly fitted or top-dose-only effect; inactive = flat fitted curve, though single readings scatter. A potency beside an inconclusive call is a rough fit, not a confirmed value.
Target: pyruvate kinase (Trypanosoma brucei) (UniProt Q57TT1)
Experiment: qHTS of Trypanosoma Brucei Inhibitors; also: nearly all actives have a fitted effect of over 50% in size
Conditions: TbPYK enzyme, Kinase-Glo Plus ATP luminescence, 45 min; series mostly up to 76.8 µM
How it was run: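 TbPYK + substrate in 50 mM TEA pH 7.2, 100 mM KCl, 10 mM MgCl2, 0.05% BSA, 0.01% Tween-20; cpd pinned; ADP 130 uM final; 45 min RT; Kinase-Glo Plus 10 min; luminescence endpoint.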
Potency is read from the fitted curve at half-maximal effect; tags tell the direction and shape of the fitted curve.

Q: For Cn1cnc(C(=O)N2CCc3ccccc3C2)c1C(=O)N1CCc2ccccc2C1, which Potency is on record?
A: inconclusive: 50.1 µM [inhibitor, single point]

Q: Cc1cc(-c2cccs2)c(C#N)c(=S)[nH]1 was tested. Which Potency did it give?
A: inconclusive: 7.94 µM [inhibitor, partial curve]

Q: With COc1ccc(S(=O)(=O)N(C(=O)c2ccco2)c2cc3sc(=O)oc3c3ccccc23)cc1 as the molecule, how does the Potency read?
A: inconclusive: 31.6 µM [inhibitor, partial curve]

Q: Which Potency does the source give for COc1ccc(C2=NN(C(=S)Nc3ccccc3)C(c3ccccc3)C2)cc1 (stereo unspecified) here?
A: inactive

Q: How did the Potency turn out when Cc1ccc(C(=O)Nc2cccc(C(=O)O)c2)cc1 was run?
A: inconclusive: 35.5 µM [inhibitor, partial curve, poor fit]

Q: With C=CCn1c(-c2ccccn2)n[nH]c1=S as the molecule, how does the Potency read?
A: inconclusive: 12.6 µM [inhibitor, partial curve]

Q: For c1ccc2c(c1)COc1c3cc4c(cc3nn1-2)OCO4, which Potency is on record?
A: inconclusive: 31.6 µM [inhibitor, single point]

Q: For Cc1coc2c1c(C)cc1oc(=O)c(CC(=O)NCc3ccc(Cl)cc3)c(C)c12, which Potency is on record?
A: inactive

Q: How did the Potency turn out when COc1cc(OC)cc(C(=O)Nc2nnc(SCC(=O)NCc3ccco3)s2)c1 was run?
A: inactive

Q: With Nc1ccc2oc(Cc3ccc(Cl)cc3)nc2c1 as the molecule, how does the Potency read?
A: inconclusive: 8.91 µM [inhibitor, partial curve]

Q: With O=c1[nH]c2cc3c(cc2cc1CN(CCCO)C(=S)NCc1ccco1)OCO3 as the molecule, how does the Potency read?
A: inconclusive: 14.1 µM [inhibitor, partial curve, poor fit]

Q: With Cc1ccnc(N=O)c1 as the molecule, how does the Potency read?
A: inconclusive: 44.7 µM [inhibitor, single point]

Q: How did the Potency turn out when Nc1ccc2c(S(=O)(=O)O)cccc2c1S(=O)(=O)O was run?
A: inconclusive: 39.8 µM [inhibitor, single point]

Q: Which Potency does the source give for COc1ccc(/C=C2\C(=O)N(c3c(Cl)cc(Cl)cc3Cl)N=C2NC(=O)c2cccc([N+](=O)[O-])c2)cc1 here?
A: inconclusive: 17.8 µM [inhibitor, single point]

Q: O=C(CSCc1ccc(F)cc1)Nc1ccccc1 was tested. Which Potency did it give?
A: inactive

Q: With CN(C)c1ccc(/C=N/n2c(-c3ccccc3Br)n[nH]c2=S)cc1 as the molecule, how does the Potency read?
A: inconclusive: 15.8 µM [inhibitor, partial curve]

Q: Which Potency does the source give for Cc1ccc(C(=O)CSc2nnc3c4ccccc4nc(Cc4ccccc4)n23)cc1 here?
A: inactive

Q: CCS(=O)(=O)N1CCc2cc(C(=O)Nc3ccc(OC)cc3OC)ccc21 was tested. Which Potency did it give?
A: inactive

Q: With COc1ccc(N/C=C2\CCc3ccccc3C2=O)cc1 as the molecule, how does the Potency read?
A: inconclusive: 35.5 µM [inhibitor, partial curve]

Q: How did the Potency turn out when CC(=O)N1CCc2c(sc3c2c(=O)n(Cc2ccccc2)c(=O)n3CC(=O)NCC2CCCO2)C1 (stereo unspecified) was run?
A: inactive

Q: For Cc1ccccc1NC(=O)CSc1nnc(-c2ccco2)c(-c2ccco2)n1, which Potency is on record?
A: active: 20 µM

Q: With CCc1ccccc1NC(=O)Cc1ccc(-n2cccc2)cc1 as the molecule, how does the Potency read?
A: inconclusive: 44.7 µM [inhibitor, single point]

Q: For CCCn1c(Cc2ccccc2)n[nH]c1=S, which Potency is on record?
A: inconclusive: 11.2 µM [inhibitor, partial curve]

Q: For Cc1ccc(C(=O)O/N=C(\N)c2ccccn2)cc1C, which Potency is on record?
A: inconclusive: 31.6 µM [inhibitor, partial curve, poor fit]

Q: How did the Potency turn out when O=C(NCc1ccco1)C1CCCN1C(=O)Nc1ccc(Cl)cc1 (stereo unspecified) was run?
A: inconclusive: 25.1 µM [inhibitor, single point]

Q: Which Potency does the source give for COC([CH2][Hg])CNC(=O)c1ccccc1OCC(=O)O (stereo unspecified) here?
A: inconclusive: 0.794 µM [inhibitor, full curve, poor fit]

Q: How did the Potency turn out when O=C(O)c1cc(-c2ccco2)nc2ccccc12 was run?
A: inconclusive: 35.5 µM [inhibitor, partial curve, poor fit]

Q: How did the Potency turn out when Cc1cccc(NC(=O)CSc2ccc(-c3ccco3)nn2)c1C was run?
A: inconclusive: 50.1 µM [inhibitor, single point]

Q: For CC(=O)c1c(C)[nH]c(=S)c(C#N)c1-c1ccc(F)cc1, which Potency is on record?
A: inconclusive: 6.31 µM [inhibitor, full curve]

Q: For O=c1cc2oc3cc(O)c(O)cc3c(-c3ccccc3O)c-2cc1O, which Potency is on record?
A: inactive

Q: For Cc1nn(CCc2n[nH]c(=S)n2-c2ccc(F)cc2)c(C)c1[N+](=O)[O-], which Potency is on record?
A: active: 10 µM

Q: With O=C(NCc1ccccc1F)C(=O)NCC1CCCN1S(=O)(=O)c1ccccc1 (stereo unspecified) as the molecule, how does the Potency read?
A: inconclusive: 25.1 µM [inhibitor, partial curve]

Q: With CCOc1ccc(/C=C/c2nc3ccccc3n2S(=O)(=O)c2cccc(Cl)c2)cc1 as the molecule, how does the Potency read?
A: inconclusive: 35.5 µM [inhibitor, single point]

Q: How did the Potency turn out when CCOC(=O)C1(C)CCCN(C(=O)c2ccc(C#N)cc2)C1 (stereo unspecified) was run?
A: inactive

Q: For Cc1ccc2[nH]cc(C(=O)CN3CCN(c4ccccn4)CC3)c2c1, which Potency is on record?
A: inactive

Q: With COC(=O)c1ccc(Oc2cc(C)nc(SC)n2)cc1 as the molecule, how does the Potency read?
A: inconclusive: 35.5 µM [inhibitor, partial curve, poor fit]

Q: With Cc1ccccc1N1C(=O)c2sc3nc4c(c(=O)n3c2C1=O)CCC4 as the molecule, how does the Potency read?
A: inconclusive: 31.6 µM [inhibitor, partial curve]

Q: Which Potency does the source give for COc1cccc(CNC(=O)CN2C(=O)CSc3ccc(S(=O)(=O)N4CCCCC4)cc32)c1 here?
A: inactive

Q: CC(=O)Nc1ccc2c(=O)n(-c3ccccc3)sc2c1 was tested. Which Potency did it give?
A: active: 7.08 µM

Q: For CSc1nc(O)c(C(c2ccc(O)cc2)c2c(O)nc(SC)[nH]c2=O)c(=O)[nH]1, which Potency is on record?
A: inconclusive: 31.6 µM [inhibitor, partial curve, poor fit]

Q: How did the Potency turn out when CSc1nc(SCC(=O)NCc2ccco2)c2c3c(sc2n1)CN(C)CC3 was run?
A: inactive

Q: With N#C/C(=C\c1cn(Cc2ccccc2)c2ccccc12)C(=O)NCc1ccco1 as the molecule, how does the Potency read?
A: inactive

Q: How did the Potency turn out when Cc1cc(-c2n[nH]c(=S)n2/N=C/c2ccc(C)o2)n[nH]1 was run?
A: inconclusive: 6.31 µM [inhibitor, full curve]

Q: How did the Potency turn out when O=C(CCc1ccccc1)NNC(=S)NC(=O)c1ccc(Cl)cc1 was run?
A: inconclusive: 12.6 µM [inhibitor, partial curve]

Q: COc1cc(/C=N/n2c(C)n[nH]c2=S)ccc1OCc1ccc(F)cc1 was tested. Which Potency did it give?
A: inconclusive: 1 µM [inhibitor, full curve]

Q: For O=c1c2ccccc2nc2c3ccccc3cnn12, which Potency is on record?
A: inactive

Q: Cc1ccc(NC(=O)N2CCC(C(=O)c3ccc(F)cc3)CC2)cc1 was tested. Which Potency did it give?
A: inactive

Q: How did the Potency turn out when COc1ccccc1/C=C/C=N/n1c(-c2cc(C)[nH]n2)n[nH]c1=S was run?
A: inconclusive: 0.891 µM [inhibitor, full curve, poor fit]

Q: How did the Potency turn out when COc1ccc(S(=O)(=O)N(CC(N)=O)C2CCCCC2)cc1Cl was run?
A: inconclusive: 39.8 µM [inhibitor, single point]

Q: How did the Potency turn out when S=c1[nH]nc(NCCCN2CCOCC2)s1 was run?
A: inconclusive: 28.2 µM [inhibitor, partial curve, poor fit]

Q: Which Potency does the source give for Cc1ccc(-c2ccc(/C=C3\C(=O)ON=C3c3ccccc3)o2)c([N+](=O)[O-])c1 here?
A: inconclusive: 35.5 µM [inhibitor, single point]

Q: Which Potency does the source give for COc1ccccc1NC(=O)C1=C(C)Nc2c(C(=O)Nc3cccc(C)c3)cnn2C1c1ccccc1Cl (stereo unspecified) here?
A: inactive

Q: With COc1ccc(Cl)cc1NC(=O)c1c(NCc2cccnc2)sc2c1CCC(C)C2 (stereo unspecified) as the molecule, how does the Potency read?
A: inconclusive: 44.7 µM [inhibitor, single point]

Q: With CCc1n[nH]c(=S)n1/N=C/c1cc(OC)cc([N+](=O)[O-])c1O as the molecule, how does the Potency read?
A: inconclusive: 17.8 µM [inhibitor, partial curve, poor fit]

Q: Which Potency does the source give for COC(=O)C1CCN(C(=O)COC(=O)c2oc3ccc(OC)cc3c2C)CC1 here?
A: inactive

Q: Which Potency does the source give for Fc1ccccc1N1CCN(c2nccn3nc(-c4ccc(Br)cc4)cc23)CC1 here?
A: inactive

Q: Which Potency does the source give for N#CC(C#N)=c1ccc2c(c1)N1C3=C(CCCC3)CC3CCCCC31N=2 (stereo unspecified) here?
A: inconclusive: 50.1 µM [inhibitor, single point]

Q: Which Potency does the source give for COC(=O)c1ccc(CN2C(=O)c3ccccc3C2=O)o1 here?
A: inactive

Q: With CC1(C)Cc2c(sc3nc(SCC(=O)O)nc(N)c23)CO1 as the molecule, how does the Potency read?
A: inconclusive: 35.5 µM [inhibitor, single point]

Q: How did the Potency turn out when Cc1[nH]c2ccccc2c1C1=NNC(=Nc2ccc(F)cc2)SC1 was run?
A: inconclusive: 12.6 µM [inhibitor, partial curve]

Q: With CCOC(=O)c1c(C)[nH]c(C)c1S(=O)(=O)N(C)CC(=O)Nc1ccc(C)cc1Br as the molecule, how does the Potency read?
A: inactive

Q: For NCCc1cc(O)c(O)cc1O, which Potency is on record?
A: inconclusive: 39.8 µM [inhibitor, partial curve, poor fit] and inconclusive: 31.6 µM [inhibitor, partial curve]

Q: With Nc1nn(-c2ccccc2)nc1C(=O)OCc1ccccc1 as the molecule, how does the Potency read?
A: inactive

Q: How did the Potency turn out when CCn1c(CSCc2c(Cl)cccc2Cl)n[nH]c1=S was run?
A: inconclusive: 7.08 µM [inhibitor, partial curve, poor fit]

Q: How did the Potency turn out when COC(=O)c1sc2nc(C)nc(SCC(=O)C(C)(C)C)c2c1C was run?
A: inactive

Q: With CCc1cc([N+](=O)[O-])cc(CC)c1N as the molecule, how does the Potency read?
A: inconclusive: 44.7 µM [inhibitor, single point]

Q: CCCC(=O)Nc1c(-c2cccc(C)c2)c(=O)c2ccccc2n1C was tested. Which Potency did it give?
A: inactive

Q: With COc1ccc(NC(=O)NC(C)(C(F)(F)F)C(F)(F)F)cc1 as the molecule, how does the Potency read?
A: inconclusive: 50.1 µM [inhibitor, single point]

Q: How did the Potency turn out when CC(C)Sc1nnc(CNC(=O)C23CC4CC(CC(C4)C2)C3)n1C1CCCCC1 was run?
A: inconclusive: 14.1 µM [inhibitor, partial curve, poor fit]

Q: COc1ccc(C2(CNC(=O)/C=C/c3ccco3)CCCC2)cc1OC was tested. Which Potency did it give?
A: inconclusive: 39.8 µM [inhibitor, single point]

Q: For O=C(CSc1nc(-c2ccccc2)cc(=O)[nH]1)N1CCc2ccccc21, which Potency is on record?
A: inconclusive: 31.6 µM [inhibitor, partial curve]
